# The campaign covered roughly 310,000 compounds. About 2,200 (0.71%) showed an effect of 50% or more. The effect is printed as a negative number. The list shows a part of the results.
# Target: human ether-à-go-go-related gene (hERG) potassium channel (human, UniProt Q12809)
# Test: primary screen, population patch clamp on CHO cells stably expressing hERG
# Sequence of human ether-à-go-go-related gene (hERG) potassium channel (Q12809 whole entry, looked up): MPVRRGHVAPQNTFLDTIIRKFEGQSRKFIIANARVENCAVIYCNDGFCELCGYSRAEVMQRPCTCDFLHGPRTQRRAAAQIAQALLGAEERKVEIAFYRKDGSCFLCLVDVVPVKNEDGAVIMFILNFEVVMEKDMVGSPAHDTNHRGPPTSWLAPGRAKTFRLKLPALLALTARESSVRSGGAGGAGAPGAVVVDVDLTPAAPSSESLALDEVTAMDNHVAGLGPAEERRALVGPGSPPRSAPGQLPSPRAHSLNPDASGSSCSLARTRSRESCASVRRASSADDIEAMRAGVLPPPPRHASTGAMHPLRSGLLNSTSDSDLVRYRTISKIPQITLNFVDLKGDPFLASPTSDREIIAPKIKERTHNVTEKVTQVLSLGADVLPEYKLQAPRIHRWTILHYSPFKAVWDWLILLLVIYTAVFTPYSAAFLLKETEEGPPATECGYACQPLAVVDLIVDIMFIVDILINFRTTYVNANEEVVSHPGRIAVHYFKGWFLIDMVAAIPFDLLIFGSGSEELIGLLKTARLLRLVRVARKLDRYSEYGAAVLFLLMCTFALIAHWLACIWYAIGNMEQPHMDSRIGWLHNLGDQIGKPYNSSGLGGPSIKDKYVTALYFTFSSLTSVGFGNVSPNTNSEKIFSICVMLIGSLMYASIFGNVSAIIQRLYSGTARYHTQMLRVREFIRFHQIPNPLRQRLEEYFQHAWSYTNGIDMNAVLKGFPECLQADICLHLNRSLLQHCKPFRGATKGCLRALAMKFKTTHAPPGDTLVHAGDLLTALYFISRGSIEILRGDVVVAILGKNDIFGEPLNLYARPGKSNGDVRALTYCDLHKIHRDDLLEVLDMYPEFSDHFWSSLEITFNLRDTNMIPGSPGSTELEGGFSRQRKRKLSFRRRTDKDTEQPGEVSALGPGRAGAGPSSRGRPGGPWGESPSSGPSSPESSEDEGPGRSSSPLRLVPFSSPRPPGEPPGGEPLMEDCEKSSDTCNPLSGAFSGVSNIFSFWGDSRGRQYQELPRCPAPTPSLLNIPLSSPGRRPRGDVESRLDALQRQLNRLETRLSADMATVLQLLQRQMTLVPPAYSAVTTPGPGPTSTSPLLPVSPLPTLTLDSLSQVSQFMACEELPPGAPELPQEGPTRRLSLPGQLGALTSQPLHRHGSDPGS
row,Structure (SMILES),"hERG current change (%, negative = inhibition) at 1uM [%]"
1,O=C(O)c1ccc(/C=N/Nc2nc(N3CCCCC3)nc(N3CCCCC3)n2)cc1,8.75
2,CCOCCc1nnc(NC(=O)c2ccc(OC)c(OC)c2)s1,2.98
3,COc1ccc(/C=N/NC(=O)c2nnn(-c3nonc3N)c2-c2cccs2)cc1OC,4.03
4,CCOc1cccc2sc(=NC(=O)c3ccc(S(=O)(=O)N4CCOCC4)cc3)n(C)c12,5.51
5,CCn1c(=O)c2c(nc(SCC(=O)NC3CCCC3)n2C)n(C)c1=O,10.7
6,Cc1ccc2c(c1)nnn2C1CCN(CC(=O)c2ccc(Cl)cc2)CC1,-6.32
7,CCOc1ccc(CNC(=O)CCCc2cn(C)c3ccccc23)cc1OC,8.28
8,CCOC(=O)Nc1ccc2c(c1)N(C(=O)CCN(CC)CC)c1ccccc1CC2,-11.3
9,CCn1cc(C(=O)O)c(=O)c2cc(F)c(N3CCN(C(=S)NC(=O)c4ccc(F)c(F)c4)CC3)cc21,24.3
10,COc1ccc(NC(=O)CC2CCCC2)cc1OC,11
11,CN(C(=O)COC(=O)c1cc(-c2ccco2)nc2ccccc12)C1CCS(=O)(=O)C1 (stereo not shown),3.39
12,Cc1cccc(NC(=O)CCC(=O)N/N=C/c2ccco2)c1,4.23
13,CCCC(CCC)c1nc2ccncc2[nH]1.O=C(O)C(=O)O,13.7
14,FC(F)(F)c1cc(-c2ccco2)nc(NCc2cccs2)n1,-3.14
15,O=[N+]([O-])c1ccc(N2CCN(S(=O)(=O)c3ccccc3)CC2)cc1N1CCc2ccccc2C1,18.9
16,COC(=O)c1sccc1NC(=O)C1CC1,7.58
17,CC(=O)c1c(C)[nH]c(C(=O)Nc2ccc(Cl)c(S(=O)(=O)N3CCOCC3)c2)c1C,11.6
18,CCCCNC(=S)NNC(=O)c1cc(-c2cccnc2)nc2ccccc12,-11.2
19,Cc1cc(C)c(/C=N/NC(=O)c2nnn(-c3nonc3N)c2COc2ccc(F)cc2)c(C)c1,6.78
20,Cc1ccccc1OCC(=O)N/N=C1\CC(=O)CC(C)(C)C1,15
21,O=C(COC(=O)COc1ccccc1)NCCC1=CCCCC1,9.12
22,CC1CCCN(S(=O)(=O)c2ccc(C(=O)Nc3ccccc3-c3nc4ccccc4[nH]3)cc2)C1 (stereo not shown),6.28
23,O=C(O)c1ccccc1NN=C1CCCCC1,10.1
24,Cc1ccc(N=C2NC(=O)CS2)cc1,1.04
25,Cc1cc(Cl)cc(C)c1OCCCCCn1ccnc1,4.08
26,CC(C)[C@H](NC(=O)N1CCn2c1nc1ccccc12)C(=O)NC1CC1,6.65
27,CC12CC(NC(=O)N1CCc1ccccc1)c1ccccc1O2 (stereo not shown),4.26
28,O=C(c1cc(-c2ccc(Cl)cc2Cl)on1)N1CCOCC1,6.71

row,Structure (SMILES),"hERG current change (%, negative = inhibition) at 1uM [%]"
1,CCCCN(CC)CCCNC(=O)c1cn(CC)c2ccc(S(=O)(=O)N3CCc4ccccc4C3)cc2c1=O,-71.9
2,C/C(=N\NC(=O)c1ccccc1C)c1ccc(N2CCOCC2)cc1,11.8
3,O=C(CC(CC(=O)c1ccc(Cl)cc1)c1ccccc1C(=O)O)c1ccc(Cl)cc1,8.37
4,CCC(=O)c1ccc(OCC(O)CN2CC(C)OC(C)C2)cc1.O=C(O)C(=O)O (stereo not shown),14.3
5,CN(C)c1ccc(C=NCCc2ccc(S(N)(=O)=O)cc2)cc1,3.1
6,Cc1ccc(C(=O)Nc2ccc3c4c(cccc24)CC3)cc1[N+](=O)[O-],7.92
7,Cc1c(C(=O)C(=O)N2c3ccccc3CC2C)c2ccccc2n1C (stereo not shown),5.77
8,CC(C)(C)n1ncc2c(=O)n(CC(=O)N3CCCCC3)cnc21,7.6
9,O=C(CSc1nc2ccccc2c(=O)n1-c1ccccc1)N1CCc2ccccc2C1,1.76
10,O=C(NC1CCCCCCC1)C1CCN(S(=O)(=O)N2CCC3(CC2)OCCO3)CC1,1.53
11,O=C(Nc1cccc(Cl)c1)Nc1cc(S(=O)(=O)N2CCCCC2)ccc1Cl,14.8
12,COc1ccc(Nc2nc3ccccc3n3cnnc23)cc1,8.24
13,CN1CCc2c(sc(/N=C/c3ccco3)c2C(N)=O)C1,2.29
14,CC1(C)N=C(c2ccc(Cl)cc2Cl)C(=O)N1,8.21
15,CCn1nc(C)cc1C(=O)N1CCCC(N(C)CCc2ccc(OC)c(OC)c2)C1 (stereo not shown),5.26
16,COCCCn1c(N)c(C(=O)NCc2ccco2)c2nc3ccccc3nc21,12.8
17,C#CCOCCOCCOCCNc1nc(N2CCN(C(=O)Cn3cc(CCO)nn3)CC2)nc(N2CCN(C(=O)[C@H](C(C)C)n3cc(CCO)nn3)CC2)n1,12.1
18,COc1ccc(C(=O)COC(=O)CCN2C(=O)[C@@H]3[C@H](C2=O)[C@@H]2C[C@H]3C(Br)C2Br)cc1 (stereo partly shown),13.6
19,Cc1ccc(C(=O)N/N=C\c2ccc([N+](=O)[O-])s2)cn1,5.77
20,CCCc1ncc(C[n+]2ccccc2C)c(N)n1.Cl.[Cl-],9.29
21,CCOc1ccc(C(C)=O)cc1NC(=O)/C=C\C(=O)O,10.6
22,CCC(=O)c1ccc(OC)c(OC)c1,15.1
23,COc1ccc(NC2CCCN(C(=O)c3cc4ncccn4n3)C2)cc1 (stereo not shown),16.1
24,Cc1ccccc1-n1c(SC(C)C(=O)N2CCN(C)CC2)nc2ccccc2c1=O (stereo not shown),5.51
25,CCn1nc(C)cc1C(=O)Sc1ccc(C)cc1,3.53
26,COc1cccc(-c2nc(SC)nc3sc(C(=O)NC(C)(C)C)c(N)c23)c1,8.15
27,COc1ccc(S(=O)(=O)Nc2ccc(-n3cnnn3)cc2)cc1[N+](=O)[O-],13.2

# From PMC4336329 (PLoS ONE, 2015)
